# The campaign covered roughly 350,000 compounds. About 31,000 (8.9%) were called active. The inconclusive results got no clear call from the source; some entries with a clear call stand among them for comparison. Calls follow the shape of the dose curve; as a rule, active = well fitted inhibition curve with a large enough effect; inconclusive = small, poorly fitted or top-dose-only effect; inactive = no such curve, though single readings can be large or run the other way. Potencies of inconclusive entries are doubtful fits and often do not repeat.
# Target: Histone-lysine N-methyltransferase EHMT2 (Homo sapiens) (UniProt Q96KQ7)
# Sequence of UniProt Q96KQ7 (Q96KQ7 whole entry, looked up): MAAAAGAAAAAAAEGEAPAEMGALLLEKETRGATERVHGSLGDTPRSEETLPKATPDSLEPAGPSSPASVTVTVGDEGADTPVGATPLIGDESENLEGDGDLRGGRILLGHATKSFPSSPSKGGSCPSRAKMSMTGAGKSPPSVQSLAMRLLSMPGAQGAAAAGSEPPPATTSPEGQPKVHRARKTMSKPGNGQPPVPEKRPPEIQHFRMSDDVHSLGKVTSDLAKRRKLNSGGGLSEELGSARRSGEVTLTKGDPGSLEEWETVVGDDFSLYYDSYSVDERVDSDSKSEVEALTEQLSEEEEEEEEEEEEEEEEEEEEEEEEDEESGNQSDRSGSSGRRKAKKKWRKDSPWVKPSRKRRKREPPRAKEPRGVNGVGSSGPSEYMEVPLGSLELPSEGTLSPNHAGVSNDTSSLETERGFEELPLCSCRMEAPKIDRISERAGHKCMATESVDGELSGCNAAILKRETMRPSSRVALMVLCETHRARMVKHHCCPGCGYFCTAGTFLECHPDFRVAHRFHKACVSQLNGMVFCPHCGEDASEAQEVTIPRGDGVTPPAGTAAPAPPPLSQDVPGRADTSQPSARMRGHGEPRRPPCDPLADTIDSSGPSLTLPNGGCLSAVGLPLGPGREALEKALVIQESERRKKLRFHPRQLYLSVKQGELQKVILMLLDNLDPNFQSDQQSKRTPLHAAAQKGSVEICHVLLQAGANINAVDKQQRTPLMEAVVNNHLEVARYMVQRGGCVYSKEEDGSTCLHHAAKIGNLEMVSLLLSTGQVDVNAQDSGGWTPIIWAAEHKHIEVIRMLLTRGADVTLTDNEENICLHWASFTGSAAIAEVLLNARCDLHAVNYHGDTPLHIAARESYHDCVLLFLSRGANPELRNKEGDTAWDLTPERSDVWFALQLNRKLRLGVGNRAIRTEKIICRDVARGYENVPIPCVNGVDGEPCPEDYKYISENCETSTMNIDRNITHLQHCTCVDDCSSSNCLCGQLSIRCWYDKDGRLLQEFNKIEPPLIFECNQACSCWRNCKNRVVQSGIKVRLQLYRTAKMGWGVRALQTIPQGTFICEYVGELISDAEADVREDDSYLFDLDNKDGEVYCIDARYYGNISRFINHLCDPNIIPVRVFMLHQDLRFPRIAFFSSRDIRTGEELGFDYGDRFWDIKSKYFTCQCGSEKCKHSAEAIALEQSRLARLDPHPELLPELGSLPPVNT
# Assay: qHTS Assay for Inhibitors of Histone Lysine Methyltransferase G9a; also: nearly all actives have a fitted effect of over 75% in size
# Conditions: G9a H3K9 monomethylation, AlphaScreen, 2 h; activity, negative = inhibition: at 59 µM (top of the series) unless noted
# Outline: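 Chemiluminescent proximity detection of H3K9 monomethylation, read after 10 min bead incubation in the dark. Reaction: 20 nM G9a, 500 nM biotin-H3K9 peptide, 20 uM SAM cofactor, 2 h, room temperature, following 15 min enzyme-compound preincubation.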
# % is scaled to controls: 0 for no effect and ±100 for the full control effect; potency is read from the fitted curve at half-maximal effect; tags tell the direction and shape of the fitted curve.
Structure (SMILES),Potency,"activity, negative = inhibition"
CCOC(=O)C1CCN(C(=O)C2CCN(C3=NS(=O)(=O)C(c4ccc(C)cc4)=C3CC)CC2)CC1,inactive,
CCNC(=S)N1CCNC(=O)C1CC(=O)OC (stereo not drawn),inactive,
O=c1c(-c2ccc3c(c2)OCCO3)coc2cc(OC3OC(CO)C(O)C(O)C3O)ccc12 (stereo not drawn),"inconclusive: 25.1 µM [inhibitor, single point]",
O=C(c1ccccc1)N1CCN(c2ccc([N+](=O)[O-])c(NCC3CCCO3)c2)CC1 (stereo not drawn),"inconclusive: 28.2 µM [inhibitor, partial curve]",
CC(C)C(NC(=O)OCc1ccccc1)C(=O)OCC(=O)NCc1ccco1 (stereo not drawn),inactive,
CCCOc1ccc(N/C=C/C(=O)C(C)(C)C)cc1,inactive,
CC(=O)N1CCC(=NNS(=O)(=O)c2cccc([N+](=O)[O-])c2)CC1,active: 10 µM,
O=C(OCc1nc(-c2ccccc2)oc1COC(=O)c1ccco1)c1ccco1,"inconclusive: 28.2 µM [inhibitor, single point]",
CCCC(C)NC(=O)CN1C(=O)NC2(CCc3ccccc32)C1=O (stereo not drawn),inactive,
CCc1ccc(OC2=NS(=O)(=O)c3ccccc32)cc1,"inconclusive: 89.1 µM [inhibitor, single point]",
FC(F)Oc1ccc(NC(=S)Nn2cnnc2)cc1,active: 6.31 µM,
CCCOc1ccc(CNC(=O)C(CC)n2nc(C)c3sc4ccccc4c3c2=O)cc1 (stereo not drawn),inactive,
CCOc1ccc2nc(C)cc(Nc3ccccc3OCC)c2c1,inactive,
CCCCCn1c(=N)c(S(=O)(=O)c2ccc(Cl)cc2)cc2c(=O)n3cccc(C)c3nc21,"inconclusive: 79.4 µM [inhibitor, single point]",
CCOCCOC(=O)C1=C(C)Nc2ccc(C)cc2S1,active: 15.8 µM,
N#Cc1c(NC(=O)c2cnccn2)sc2c1CCCC2,"inconclusive: 4.47 µM [inhibitor, full curve, poor fit]",
COc1ccc([N+](=O)[O-])cc1-c1nc2ccccc2nc1-c1ccccc1,,inactive: 7.8% [at 0.501 µM]
CCCc1nc([N+](=O)[O-])c(S(=O)(=O)c2ccccc2)n1CC(C)C,"inconclusive: 79.4 µM [inhibitor, partial curve, poor fit]",
CCc1nnc(NC(=O)c2cc(S(=O)(=O)N3CCN(c4ccccc4)CC3)ccc2Cl)s1,"inconclusive: 20 µM [inhibitor, partial curve, poor fit]",
CC(C)(C)c1ccc(-c2nc(C#N)c(NCc3cccnc3)o2)cc1,active: 39.8 µM,
O=C(O)C1CCCCC1C(=O)Nc1ccccc1Nc1ccccc1 (stereo not drawn),"inconclusive: 12.6 µM [inhibitor, partial curve, poor fit]",
CSc1nsc(SC)c1NC(=O)N1CCCC1,,inconclusive: -85% [inhibitor]
COCCNC(=O)c1c(C)oc2nc(C)nc(N3CCOCC3)c12,inactive,
COC(=O)C1SCC2C(=O)N(Cc3ccc(Cl)c(Cl)c3)CC(=O)N21 (stereo not drawn),inactive,
COc1ccc(OCC(O)CNCCOc2ccccc2OC)c(C(C)(C)C)c1 (stereo not drawn),"inconclusive: 89.1 µM [inhibitor, single point]",

Structure (SMILES),Potency,"activity, negative = inhibition"
Cc1ccc2c(c1)NC(c1cccnc1)=NC(c1ccc(F)cc1)=N2,"inconclusive: 12.6 µM [inhibitor, partial curve]",
CC(C)(C)n1[nH]c2c3c(ccc2c1=O)C(=O)c1ccccc1C3=O,"inconclusive: 1.12 µM [inhibitor, full curve, poor fit]",
Cc1ccc2c(c1)c1c(n2CC(O)CN2CCC(C)CC2)CCCC1 (stereo not drawn),"inconclusive: 50.1 µM [inhibitor, partial curve, poor fit]",
CC(CN1CCN(Cc2ccccc2)CC1)OC(=O)c1ccco1 (stereo not drawn),,inconclusive: -51.4% [inhibitor]
COc1ccc(C(=O)/C(C#N)=N/Nc2ccccc2[N+](=O)[O-])cc1,"inconclusive: 89.1 µM [inhibitor, single point]",
Cc1ccc(NC(=O)C(OC(=O)c2cnc(C)cn2)c2ccccc2)c([N+](=O)[O-])c1 (stereo not drawn),"inconclusive: 35.5 µM [inhibitor, partial curve, poor fit]",
COc1cccc(-c2nc(CS(=O)(=O)CC(=O)NCc3ccc(C)cc3)c(C)o2)c1,inactive,
CCOC(=O)c1c(-c2ccccc2)csc1NC(=O)/C(C#N)=C/c1ccc(O)c(OC)c1,active: 39.8 µM,
O=C(NC1CCCCCC1)C1CCCN(c2ncccn2)C1 (stereo not drawn),inactive,
C/C(=N/NS(=O)(=O)c1ccc(C)c(C)c1)c1c[nH]c2ccccc12,inactive,
Cc1cccc(OCC(=O)OCc2cc(=O)n3nc(C4CCCCC4)sc3n2)c1,inactive,
CC(=O)Nc1sc(C)c(C)c1C(=O)OCC(=O)N(CC(C)C)c1c(N)n(Cc2ccccc2)c(=O)[nH]c1=O,"inconclusive: 79.4 µM [inhibitor, partial curve, poor fit]",
CCN1CCN(c2oc(COc3ccc(Cl)cc3)nc2C#N)CC1,"inconclusive: 0.562 µM [inhibitor, full curve, poor fit]",
Cc1ccc(-c2c3c(=O)n(C)c(=O)n(C)c3cn2-c2ccccc2O)cc1,active: 31.6 µM,
N#Cc1cccc(NC(=O)CSc2ccc3c4c(cccc24)C(=O)c2ccccc2-3)c1,"inconclusive: 11.2 µM [inhibitor, partial curve, poor fit]",
CSc1ccccc1NC(=O)C1=CC(c2ccc(C)cc2)=NS(=O)(=O)N1C,active: 79.4 µM,
COc1ccc(N(C)S(=O)(=O)c2cccc(C(=O)NCC3CCCO3)c2)cc1 (stereo not drawn),"inconclusive: 39.8 µM [inhibitor, single point]",
COc1ccc(OC)c(-c2cc(C3CCN(C(=O)OC(C)(C)C)CC3)[nH]n2)c1,"inconclusive: 35.5 µM [inhibitor, full curve]",
Cc1ccc(S(=O)(=O)NCC(c2ccc(N(C)C)cc2)N2CCOCC2)cc1 (stereo not drawn),"inconclusive: 25.1 µM [inhibitor, single point]",
Cc1ccc(C(=O)Nc2ncn[nH]2)cc1,"inconclusive: 89.1 µM [inhibitor, single point]",
CC(C)CN1CCN(Cc2ccc(C#CC(C)(C)O)cc2)CC1CCO (stereo not drawn),"inconclusive: 3.55 µM [inhibitor, partial curve, poor fit]",
CCCCN(C(=O)CSCC(=O)Nc1ccc(C)cc1)c1c(N)n(Cc2ccccc2)c(=O)[nH]c1=O,,inactive: -0.85% [at 12.7 µM]
CCC(=O)N1CCN(c2nc(-c3ccc(Cl)cc3)cs2)CC1,"inconclusive: 39.8 µM [inhibitor, single point]",
Cc1ccc(O)c(C(=O)c2cnc3onc(-c4ccc(F)cc4)c3c2)c1,"inconclusive: 39.8 µM [inhibitor, single point]",
COc1cccc(C(=O)/C=C/Nc2cc(C)ccc2O)c1,"inconclusive: 31.6 µM [inhibitor, single point]",

Structure (SMILES),Potency,"activity, negative = inhibition"
COc1ccc(C(=O)c2cn(Cc3ccc(F)cc3)c3ccc(C)cc3c2=O)cc1,inactive,
Oc1ccccc1C(=S)N1CCCCCC1,"inconclusive: 4.47 µM [inhibitor, single point]",
CCOC(=O)C1(CCCCCCOc2ccc(Cl)cc2)CO1 (stereo not drawn),inactive,
CCn1cc(C(=O)Nc2ccccc2C(=O)OC)c(=O)c2ccc(C)nc21,inactive,
O=C(O)C1C2CCC(C2)C1C(=O)N1CCCC1 (stereo not drawn),inactive,
CCOC(=O)c1oc2nc(C)c3c(c2c1N)CC(C)(C)OC3,"inconclusive: 50.1 µM [inhibitor, partial curve]",
COc1cc(C(=S)N2CCOCC2)cc(OC)c1OC(=O)c1cc([N+](=O)[O-])c(C)c([N+](=O)[O-])c1,"inconclusive: 11.2 µM [inhibitor, full curve]",
CCc1ccc(OC(C)C(=O)Nc2ccc(S(=O)(=O)Nc3cc(C)on3)cc2)cc1 (stereo not drawn),inactive,
O=C(COC(=O)c1ccccc1SCC(=O)N1CCCC1)Nc1ccc(OC(F)F)cc1,"inconclusive: 89.1 µM [inhibitor, single point]",
COc1cc(C2c3sc(=O)[nH]c3SC3C(=O)N(c4ccc(C)cc4)C(=O)C32)ccc1O (stereo not drawn),"inconclusive: 44.7 µM [inhibitor, partial curve]",
CCN(CC)C(=O)c1ccc(-c2ccccc2)cc1,inactive,
COc1ccc(N2C(=O)CC(N3CCCC4CCCCC43)C2=O)cc1 (stereo not drawn),"inconclusive: 2.24 µM [inhibitor, partial curve, poor fit]",
CCOC(=O)c1ccc(NC(=O)CSc2nnc(CNc3ccc(C)cc3)n2C)cc1,inactive,
Cc1n[nH]c(C)c1CCOc1ccc(C(C)C)cc1,"inconclusive: 39.8 µM [inhibitor, single point]",
O=C(/C=C\c1ccccc1)Oc1cccc2cccnc12,inactive,
Fc1ccc(Nc2nnns2)cc1,active: 10 µM,
Cn1c(=O)c2c(-c3cccc(Br)c3)n(CCO)cc2n(C)c1=O,inactive,
COCCOC(=O)C1=C(N)Oc2c(oc(CO)cc2=O)C1c1ccccc1F (stereo not drawn),"inconclusive: 79.4 µM [inhibitor, single point]",
Cc1ccc(-c2cccc(C(=O)NCc3ccccc3)n2)c2ccccc12,"inconclusive: 50.1 µM [inhibitor, partial curve, poor fit]",
CC1CCN(CCCNC(=O)c2cc(Sc3ccc(F)cc3)nc3ccccc23)CC1,inactive,
C/C(=N\NC(=O)c1cccc(F)c1)c1ccc(NC(=O)Cc2ccccc2)cc1,inactive,
CCOC(=O)c1sc(NC(=O)CN2CCN(c3ccc(OC)cc3)CC2)nc1C,active: 39.8 µM,
O=C(Nc1ccccc1C(=O)N1CCCC1)c1ncoc1-c1cccc(Cl)c1,inactive,

# Reference: PubChem BioAssay AID504332 (National Center for Advancing Translational Sciences (NCATS), 2011)
